# Reference: PubChem BioAssay AID686978 (National Center for Advancing Translational Sciences (NCATS), 2013)
# “And” between values parts separate entries of the source, which are not always exact repeats. Identical values can stand only once. Hit rate of the full screen: of about 420,000 compounds, about 64,000 (15%) were called active. This list was built around the results that the source calls inconclusive (neither active nor inactive); the mix of calls is not that of the screen. The call rests on the fitted dose curve; in most records, active means well fitted inhibition curve with a large enough effect; inconclusive means small, poorly fitted or top-dose-only effect; inactive means flat fitted curve, though single readings scatter. No potency is given beside an inconclusive call; the fits are too rough.
# Assay: qHTS for Inhibitors of human tyrosyl-DNA phosphodiesterase 1 (TDP1): qHTS in cells in absence of CPT; further: nearly all actives have a fitted effect of over 55% in size
# Settings: DT40 Tdp1-/- hTDP1 cells, no CPT, ATP luminescence, 48 h; activity change, negative = growth inhibition: at 46.2 µM (top of the series) unless noted
# Summary of the method: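 Compound effects on proliferation are scored in DT40 Tdp1-/-;hTDP1 cells in the absence of CPT. ATP levels (CellTiter-Glo luminescence) are recorded after a ≥48 hr, 37 °C incubation.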
# On the % scale 0 is the no-effect control and ±100 the full control effect; potency means the concentration at half of the fitted maximal effect; tags describe the fitted curve by direction and shape.
SMILES,"activity change, negative = growth inhibition",Potency
COc1ccccc1OCCNC(=O)C1CC(=O)N(c2ccc3c(c2)OCCO3)C1 (stereo not drawn),inactive: 3.77%,–
O=S(=O)(Nc1cccc(CCc2ccccn2)c1)c1ccc2ccccc2c1,–,"inconclusive [inhibitor, single point]"
Clc1ccc2[nH]c3c(c2c1)CCc1cn[nH]c1-3,–,active: 18.4 µM
CCS(=O)(=O)Nc1ccc(C2=NN(C(=O)c3ccco3)C(c3ccc(C)cc3)C2)cc1 (stereo not drawn),–,active: 20 µM
NC(=O)c1ccc(-c2nnc(Nc3ccc(S(N)(=O)=O)cc3)c3ccccc23)cc1,–,"inconclusive [inhibitor, single point]"
COc1ccccc1C(C(=O)c1ccccc1)c1ccc(O)cc1 (stereo not drawn),–,"inconclusive [inhibitor, single point]"
O=C(Nc1cccc(C(F)(F)F)c1)C(SCCO)c1ccccc1 (stereo not drawn),–,"inconclusive [inhibitor, single point]"
COC(=O)c1cc(S(=O)(=O)N(C)c2ccc(C)c(C)c2)c[nH]1,–,"inconclusive [inhibitor, single point]"
COc1ccc(Nc2nc(C)nc3c2oc2ccccc23)cc1,–,"inconclusive [inhibitor, single point]"
COc1ccc(C)cc1NC(=O)C1CCCN1S(=O)(=O)c1ccccc1F (stereo not drawn),–,"inconclusive [inhibitor, single point]"
CCOC(=O)[C@]12CCC=C1N(CCC1=CCCCC1)C(=O)[C@H](CC(=O)NCCC(C)C)C2,–,active: 16.4 µM
CCCCCCCOC1(c2ccccc2)OC(=O)c2ccccc21 (stereo not drawn),–,"inconclusive [inhibitor, partial curve]"
COc1ccc(-c2cn3cccnc3n2)cc1Br,–,"inconclusive [inhibitor, partial curve, poor fit]"
O=C(O)C(=Cc1ccc([N+](=O)[O-])cc1)c1cccc(Cl)c1,–,"inconclusive [inhibitor, single point]"
CC(C)Sc1nc2c(c(=O)n1-c1ccc(F)cc1)SCC2,inactive: -28.7%,–
CCOCCCNC(=O)C(NC(=O)c1ccccc1O)c1ccc(Cl)cc1 (stereo not drawn),inactive: -16.6%,–
CN1C(=O)c2ccccc2Sc2ccc(NC(=O)COc3ccc(Cl)cc3)cc21,–,active: 11.6 µM
Cc1ccc(CSCCNS(=O)(=O)c2ccc(C)cc2)cc1,–,"inconclusive [inhibitor, single point]"
COCCNc1ccc(-c2nc(-c3cccc(C)c3)no2)cc1[N+](=O)[O-],–,"inconclusive [inhibitor, partial curve]"
NC(=O)c1cc([N+](=O)[O-])ccc1NCc1cccnc1,–,"inconclusive [inhibitor, single point]"
CC(=O)N1CCN(c2ccc(NC(=O)C(C)Oc3ccc(Cl)cc3Cl)cc2)CC1 (stereo not drawn),–,active: 20.6 µM
Cc1cc(O)c(C=O)c2c1C(=O)Oc1c(C)c(O)c3c(c1O2)C(O)OC3=O (stereo not drawn),inactive: -0.376%,–
Cc1cc(C)nc(N2CCN(c3ncnc4c3cnn4Cc3ccc(Cl)cc3Cl)CC2)n1,–,active: 3.66 µM
CN1CCN(C(=O)C2=C[C@@H](c3ccc(Br)cc3)C[C@@H](OCc3ccc(CO)cc3)O2)CC1,–,"inconclusive [inhibitor, single point]"
Cc1cc(OCC(=O)NCc2ccccn2)c2c(C)c(C)c(=O)oc2c1,–,"inconclusive [inhibitor, single point]"

SMILES,"activity change, negative = growth inhibition",Potency
Cc1ccnc2ccc(-c3nc4ccccc4o3)cc12,–,active: 10 µM
Cc1ccc(C2C(/C=C3/SC(=S)NC3=O)=C(c3cccs3)Oc3ccccc32)cc1 (stereo not drawn),–,"inconclusive [inhibitor, single point]"
Cc1cccc(N(C(=O)Cc2cccs2)C(C(=O)NC2CCCC2)c2ccsc2)c1 (stereo not drawn),–,"inconclusive [inhibitor, partial curve]"
CCNC(=S)N1CCN(C(=O)c2ccco2)CC1,inactive: -11.5%,–
O=S(=O)(c1ccc(N2CCCC2c2nc3ccccc3s2)nc1)N1CCOCC1 (stereo not drawn),–,"inconclusive [inhibitor, single point]"
O=[N+]([O-])c1cc(S(=O)(=O)N2CCCC2)ccc1OCCOc1ccccc1,–,"inconclusive [inhibitor, partial curve]"
Oc1ccc2ccccc2c1CNc1ccc2ccccc2c1,–,"inconclusive [inhibitor, single point]"
CC(C)(C)c1cc[n+](/C(C(=S)NC2CC2)=C(/[O-])c2ccc(Cl)s2)cc1,–,"inconclusive [inhibitor, partial curve]"
Cc1ccc(C(=O)Nc2cccc3cccnc23)cc1Br,–,"inconclusive [inhibitor, single point]"
O=C(Cn1nnc(-c2ccccc2)n1)NNC(=O)c1ccco1,inactive: 0.338%,–
Cc1sc(NC(=O)CSc2nnc3scc(-c4ccccc4)n23)c(C#N)c1C,inconclusive: -30.7% [inhibitor],–
Cc1ccccc1CS(=O)(=O)c1nnc([C@H](Cc2ccccc2)NC(=O)OC(C)(C)C)o1,–,active: 2.06 µM
C[C@@H]1CN([C@@H](C)CO)C(=O)c2cc(C#Cc3ccccc3)cnc2O[C@@H]1CN(C)Cc1ccccn1,–,"inconclusive [inhibitor, single point]"
CCOC(=O)C1=C(C#N)C(C(=O)OCC)c2ncccc21 (stereo not drawn),–,"inconclusive [inhibitor, full curve, poor fit]"
Cc1ccc2c(c1C)-c1c(ccc(C)c1C)C(=O)C2=O,–,active: 1.03 µM
Cc1ccc2c(c1)C(=O)N1[C@H]3c4cc(Cl)ccc4OC[C@@H]3[C@H](c3ccccc3)[C@]1(C)C(=O)N2,–,active: 16.4 µM
COc1cccc(OC)c1Cn1nnc2c(=O)[nH]c(C3CCN(C(=O)c4ccccc4)CC3)nc21,–,"inconclusive [inhibitor, single point]"
CCn1c(NC(=O)Nc2ccccc2OC)nc2ccccc21,–,"inconclusive [inhibitor, single point]"
Cc1nn(-c2ccccc2)c(N2CCCCC2)c1/C=N/NC(=O)c1ccncc1,–,active: 23.1 µM
CCOC(=O)C1(CCCc2ccccc2)CCN(Cc2cn(CC)nc2C)CC1,–,"inconclusive [inhibitor, single point]"
CCc1nc2ccccc2c(C(=O)Nc2cccc(C)c2)c1C,–,"inconclusive [inhibitor, single point]"
CSc1ccc(CCNC(=O)c2ccc3c(c2)nc2n3CCOC2)cc1,–,"inconclusive [inhibitor, single point]"
Cc1ccc(NC(=S)NCCC2=CCCCC2)cc1,–,active: 23.1 µM
CCc1nc2c(OCCn3cccc3)cccn2c1N(C)C(=O)CC(C)C,–,"inconclusive [inhibitor, single point]"
Cc1ccc(S(=O)(=O)N2CCOCC2)cc1NC(=O)CSc1nnc(N)s1,inactive: -2.06%,–

SMILES,"activity change, negative = growth inhibition",Potency
O=C(NCCc1cn[nH]c1)C1CCC(=O)N(CCc2cccc(F)c2)C1 (stereo not drawn),–,"inconclusive [inhibitor, single point]"
CN(C1=NS(=O)(=O)c2ccccc21)c1ccc(OC(=O)c2ccccc2)cc1,–,"inconclusive [inhibitor, partial curve]"
COc1cccc(CNc2nc(NCc3ccccc3)nc3ccsc23)c1,–,active: 4.11 µM
O=C(NCCc1c[nH]c2ccccc12)C(=O)NCC1OCCN1S(=O)(=O)c1ccc(Cl)cc1 (stereo not drawn),–,active: 20.6 µM
CC(C)CC(/C(O)=C(\C#N)c1nc2ccccc2[nH]1)N1C(=O)c2ccccc2C1=O (stereo not drawn),inactive: -22.7%,–
Cc1cc(C)nc(SCC(N)=O)n1,–,"inconclusive [inhibitor, full curve, poor fit]"
Cc1ccc(C(=O)N2CCOCC2)cc1[N+](=O)[O-],inactive: -3.61%,–
COCCCNc1nc2ccccc2nc1NS(=O)(=O)c1cc(Cl)ccc1Cl,–,"inconclusive [inhibitor, partial curve]"
COc1ccc(Cl)cc1NC(=O)CSc1cn(CC(=O)N2CCCC2)c2ccccc12,–,active: 3.26 µM
O=C(c1c(F)cccc1F)N(C1CCCCC1)C1CCCCC1,–,active: 18.4 µM
CCOC(=O)c1[nH]c2c(c1C)C(=O)CC(c1ccc(F)cc1)C2 (stereo not drawn),–,active: 0.651 µM
O=C1/C(=C/c2ccncc2)N=C2CCCCCN12,inactive: -10.9%,–
N#CCCn1c(=O)c(-c2ccc(Cl)cc2)nc2cnc(Oc3cccc(Cl)c3)nc21,inactive: -9.11%,–
CCCCCNC(=O)C(CCc1ccccc1)n1c(=O)c(-c2ccccc2)nc2ccccc21 (stereo not drawn),–,active: 5.8 µM
CCOc1ccc2oc(=O)cc(CN3CCOCC3)c2c1,inactive: -2.46%,–
COC(=O)Cn1c(=NC(=O)C2COc3ccccc3O2)sc2cc(S(N)(=O)=O)ccc21 (stereo not drawn),–,active: 18.4 µM
COc1ccccc1CNC(=O)c1cc2c(=O)n(Cc3cccs3)ccc2nc1C,–,"inconclusive [inhibitor, single point]"
Cc1ccc(CNC(=O)CN2CCCC(C)C2)cc1 (stereo not drawn),inactive: -8.78%,–
CCN(CC)S(=O)(=O)c1ccc2oc(SCC(=O)NC3CC3)nc2c1,inactive: -11.1%,–
CCOc1ccc(CCNC(=O)Cn2c(=O)oc3ccccc32)cc1OCC,inactive: 8.69%,–
CC(=O)NC(=S)Nc1ccc(S(=O)(=O)Nc2nc(C)cc(C)n2)cc1,inactive: 1.4%,–
COc1ccc(OC)c(/C=N/NC(=O)c2c(C)nc3ccc(C)cn23)c1,–,"inconclusive [inhibitor, single point]"
CC(C)c1nnc(NC(=O)c2nc(S(=O)(=O)Cc3ccccc3)ncc2Cl)s1,–,active: 7.31 µM and active: 9.2 µM
